PubChem BioAssay (NCATS)
Several values for one entry are separate records, joined by “and”; a condition that tells them apart may be missing. Identical values can stand only once. Inconclusive means that the source gave no clear call. Such entries were picked first, then a sample of the others. Where the call is inconclusive, the potency comes from a doubtful curve fit. “Side channel” marks fits to a control or component signal instead of the main read-out. A structure can be active in one record and inactive in another. Activity calls are given as the source filed them. Calls follow the shape of the dose curve; as a rule, active = well fitted activation curve with a large enough effect in the signal ratio (not every such curve was filed as active); inconclusive = small, poorly fitted or top-dose-only effect, or a change in a side signal; inactive = flat fitted curve, though single readings scatter; the % refers to the signal ratio.

Test: qHTS assay for small molecule activators of the p53 signaling pathway (AID 651743); as to activation: series mostly up to about 92 µM; % of control where 0% means no effect
Details: HCT-116 p53RE-bla, beta-lactamase FRET ratio, 16 h; activation: stronger effect = higher value
Excerpt: National Center for Advancing Translational Sciences [NCATS] NIH Chemical Genomics Center [NCGC] U.S. Environmental Protection Agency [EPA] National Institutes of Environmental Health Sciences [NIEHS] National Toxicology Program [NTP] Assay Overview: p53, a tumor suppressor protein, is activated following cellular insult, including DNA damage and other cellular stresses. The activation of p53 regulates cell fate by inducing DNA repair, cell cycle arrest, apoptosis, or cellular senescence. The activation of p53, therefore, is a good indicator of DNA damage and other cellular stresses. The CellSensor p53RE-bla HCT-116 cell line (Invitrogen) contains a stably integrated beta-lactamase reporter gene under control of the p53 response elements. The activation of the report gene under culture conditions can be detected by fluorescence intensity. This cell line can be used to screen chemicals in a 1536-well plate format and to identify agonists that activate p53 signaling pathway.
Assay Protocol Summary: The p53RE-bla cells were dispensed at 4,000 cells/5 ul/well in 1536-well black wall/clear bottom plates using a Multidrop dispenser. After the assay plates were incubated at a 37 C/5% CO2 incubator for 5 hours, 23 nL of compounds dissolved in DMSO, positive controls or DMSO only was transferred to the assay plate by a pin tool. The plates were incubated at 37 C for 16 hours. After 1 uL of LiveBLAzer B/G FRET substrate was added using a Flying Reagent Dispenser, the plates were incubated at room temperature for 2 hours, and fluorescence intensity was measured by an Envision plate reader.
Potency is read from the fitted curve at half-maximal effect; tags tell the direction and shape of the fitted curve.

Structure (SMILES)	Potency	activation
CC(=O)Nc1ccc(C(=O)CCl)cc1	active: 31.6 µM	
CCCCCCCC[N+](CCCCCCCC)(CCCCCCCC)CCCCCCCC	inconclusive: 22.4 µM [side channel, falling, full curve]	
CN(C)c1ccc(C2(c3ccc(N(C)C)cc3)OC(=O)c3cc(N(C)C)ccc32)cc1	active: 50.1 µM	
C=CC(=O)OCCCCCCOC(=O)C=C	active: 70.8 µM	
NC1=NC(S)C2N=CN=C2N1 (stereo not drawn)	inconclusive: 7.08 µM [side channel, falling, full curve, poor fit]	
CCN(CC)c1ccc2c(C)cc(=O)oc2c1	active: 39.8 µM	
Cc1cc(O)c(C(C)(C)C)cc1Sc1cc(C(C)(C)C)c(O)cc1C	inconclusive: 28.2 µM [side channel, falling, full curve] and inconclusive: 22.4 µM [side channel, falling, full curve]	
CC1=C(/C=C/C(C)=C/C=C/C(C)=C/C=O)C(C)(C)CCC1	inconclusive: 35.5 µM [side channel, falling, full curve, poor fit]	
Cc1cc(Nc2ccc(O)cc2)ccc1N	inconclusive: 44.7 µM [side channel, falling, partial curve, poor fit]	
Cc1cc(C(C)(C)CC(C)(C)C)ccc1OCCOCC[N+](C)(C)Cc1ccccc1	inconclusive: 70.8 µM [cytotoxic, single point]	
Cc1cc(C(=O)O)ccc1[N+](=O)[O-]		inactive: -0.415%
O=C(OCC(COC(=O)c1ccccc1)(COC(=O)c1ccccc1)COC(=O)c1ccccc1)c1ccccc1	inconclusive: 39.8 µM [side channel, falling, partial curve]	
S=C1NC=NC2N=CNC12 (stereo not drawn)	active: 10 µM	
O=Cc1c(Cl)cccc1Cl		inactive: -2.41%
Nc1cccc(S(=O)(=O)O)c1		inactive: -1.01%
O=C1OC2(c3cc(Br)c(O)c(Br)c3Oc3c2cc(Br)c(O)c3Br)c2c(Cl)c(Cl)c(Cl)c(Cl)c21	inconclusive: 39.8 µM [side channel, falling, partial curve, poor fit]	
O=C1c2ccccc2C(=O)C1(O)O	inconclusive: 44.7 µM [activator, partial curve, poor fit]	
O=C(O)c1ccccc1		inactive: 7.69%
O=C(OCC1CO1)C1CCCCC1C(=O)OCC1CO1 (stereo not drawn)		inconclusive: 16.7%
O=c1[nH][nH]c(=O)c2cc([N+](=O)[O-])ccc12		inactive: -3.95%
Cc1cc(-c2ccc(N=Nc3cc(S(=O)(=O)O)c4ccccc4c3N)c(C)c2)ccc1N=Nc1cc(S(=O)(=O)O)c2ccccc2c1N	inconclusive: 50.1 µM [side channel, falling, partial curve, poor fit]	
O=C=Nc1ccc(Cl)c(Cl)c1	inconclusive: 5.01 µM [side channel, falling, single point]	
CC(C)N(C)C		inactive: -1.2%
